In PubChem BioAssay AID686970 (National Center for Advancing Translational Sciences (NCATS), 2013):
Several values for one entry are separate records, joined by “and”; a condition that tells them apart may be missing. Equal values may be shown once. Out of some 360,000 compounds screened, about 6,000 (1.7%) were called active. The inconclusive results got no clear call from the source; some entries with a clear call stand among them for comparison. The call rests on the fitted dose curve; in most records, active means well fitted cell-killing curve with a large enough effect; inconclusive means small, poorly fitted or top-dose-only effect, or effect the other way; inactive means flat fitted curve, though single readings scatter. No potency is given beside an inconclusive call; the fits are too rough.

assay: qHTS for induction of synthetic lethality in tumor cells producing 2HG: qHTS for the HT-1080-NT fibrosarcoma cell line; conditions: HT-1080-NT fibrosarcoma viability, CellTiter-Glo ATP luminescence, 48 h; activity, negative = less viability: at 46.1 µM (top of the series) unless noted;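 further: NT is the 2HG producing partner of a matched IDH1 knockdown line; nearly all actives have a fitted effect of over 55% in size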;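 on activity, negative = less viability: 0% = DMSO-treated cells and -100% = media-only wells without cells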
Summary of the method: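 HT-1080-NT fibrosarcoma cells (2HG-overproducing), 750 cells/well in RPMI with 5% FBS, dosed after 2 h and incubated 48 h at 37C. CellTiter-Glo luminescence normalized to DMSO and no-cell wells; concentration-response curves fitted and classed.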
Potency means the concentration at half of the fitted maximal effect; tags describe the fitted curve by direction and shape.

| Compound | Potency | activity, negative = less viability |
| --- | --- | --- |
| Cc1cc(C)n2c(Nc3c(C)cccc3C)c(-c3ccccn3)nc2n1 | inconclusive [cytotoxic, single point] |  |
| Cc1cc(C)c2oc(=O)cc(CN3CCCCC3)c2c1 |  | inactive: -1.84% |
| COc1ccc(NC(=O)Nc2ccc3c(c2)CCC3)cc1 |  | inactive: -0.351% |
| O=C(O)c1ccccc1-c1ccccc1C(=O)Nc1ccc(-c2nc3cc(Cl)ccc3o2)cc1 |  | inactive: -1.1% |
| CCN(CC(=O)NCc1cccs1)C(=O)c1ccc(-c2cccc(C(F)(F)F)c2)o1 | inconclusive [cytotoxic, partial curve] |  |
| O=C(OCc1ccccc1)N1CCC2CC1c1cc(-c3ccc(F)cc3)ccc12 (centres undefined) |  | inactive: 1.14% |
| COc1cc(/C=N/NC(=Nc2ccc(C)cc2)c2nc3ccccc3s2)ccc1O | inconclusive [cytotoxic, single point] |  |
| O=C(N=Nc1c(O)[nH]c2ccccc12)Nc1ccccc1 |  | inactive: 19.3% |
| CSc1nc(N)nc(SCC(=O)C23CC4CC(CC(C4)C2)C3)c1C#N | inconclusive [cytotoxic, single point] |  |
| COc1ccc(C(CNc2ncnc3sccc23)N(C)C)cc1OC (centres undefined) |  | inactive: -23.7% |
| COc1cccc2cc(C(=O)c3ccccc3)oc12 | inconclusive [rising, partial curve] |  |
| O=C(CCl)Nc1cc(SCC(O)CO)cc([N+](=O)[O-])c1 (centres undefined) | active: 1.84 µM |  |
| O=C(c1cccc(Cl)c1)N1CCC2CC1c1cc(-c3ccccc3)ccc12 (centres undefined) |  | inactive: -3.55% |
| CCc1nc(Nc2ccc(OC)cc2OC)c2oc3ccccc3c2n1 | inconclusive [cytotoxic, single point] |  |
| COc1ccc(F)c(CN2CCC(CO)(Cc3cccc(C(F)(F)F)c3)CC2)c1 | inconclusive [cytotoxic, partial curve] |  |
| N#CC1=C(N)C(C#N)(C#N)C2(C(=O)Nc3ccccc32)C2CCCC=C12 (centres undefined) | inconclusive [cytotoxic, single point] |  |
| CCOC(=O)N1CCN(CCC(=O)c2ccc(Cl)cc2)CC1 | inconclusive [cytotoxic, single point] |  |
| Nc1nonc1-n1nnc(C(=O)N/N=C/c2cc(Br)ccc2O)c1CNc1ccccc1 | inconclusive [cytotoxic, single point] |  |
| CS(=O)(=O)N(CC(=O)Nc1c(F)cccc1F)c1ccc(C23CC4CC(CC(C4)C2)C3)cc1 | inconclusive [cytotoxic, single point] |  |
| Cc1ccc2nc(C)cc(N/N=C/c3cccnc3)c2c1 |  | inconclusive: -38.3% [cytotoxic] |
| COc1ccccc1NC(=O)Nc1nc(C(N)C2CCCCC2)cs1 (centres undefined) | active: 16.4 µM |  |
| CNC(=O)C1(C)Cc2c(-c3ccc(NC(C)=O)cc3)ccnc2O1 (centres undefined) | inconclusive [rising, single point] |  |
| CCOc1ccc(OCCSc2nc3ccccc3[nH]2)cc1 | inconclusive [cytotoxic, single point] |  |
| CCC(C(=O)Nc1ccc(S(=O)(=O)Nc2ncccn2)cc1)c1ccccc1 (centres undefined) |  | inactive: 13% |
| N#CC1=C(N)N(c2ccc(Br)cc2)C2=C(C(=O)CCC2)C1c1cccnc1 (centres undefined) | active: 12.6 µM |  |

| Compound | Potency | activity, negative = less viability |
| --- | --- | --- |
| COc1ccc2c(c1)-c1c(sn(-c3ccc(OC)c(OC)c3)c1=S)C(C)(C)N2 | inconclusive [cytotoxic, single point] |  |
| C=CCOC(=O)COc1ccc2c(C)c(C)c(=O)oc2c1C |  | inactive: 7.58% |
| Cc1ccc(CN2CCC[C@]3(N[C@H](c4ccc(C(F)(F)F)cc4)[C@@H]4C(=O)N(C)C(=O)[C@@H]43)C2=O)cc1 |  | inactive: -1.05% |
| CC(=O)N1CCN(c2ccc(NC(=O)c3ccc(C(C)(C)C)cc3)cc2)CC1 | inconclusive [cytotoxic, single point] |  |
| Cn1c(=O)c2c(ncn2CC(=O)Nc2nc(-c3ccc(F)c(F)c3)cs2)n(C)c1=O |  | inactive: 0% |
| COC(=O)[C@@]12C[C@@H](CC(=O)NCc3ccc(C)o3)C(=O)N(Cc3ccc4c(c3)OCO4)C1=CCC(C)(C)C2 | inconclusive [cytotoxic, single point] |  |
| Cc1ccc2cc(C)c3nnc(SCC(=O)Nc4nc5c(s4)CCCC5)n3c2c1C | inconclusive [cytotoxic, single point] |  |
| COc1ccc(OC)c(C(=O)CCCCC(=O)c2cc(OC)ccc2OC)c1 |  | inactive: -7.13% |
| CCOC(=O)c1c(C)c(C(=O)Nc2ccc(F)cc2)c(C)n1C | inconclusive [cytotoxic, single point] |  |
| CCS(=O)(=O)Nc1ccc(C2=NN(C(=O)c3ccccc3)C(c3cccs3)C2)cc1 (centres undefined) | inconclusive [cytotoxic, single point] |  |
| Cc1c(C(=O)c2ccc(F)cc2)c2ccccn2c1CCc1ccccn1 |  | inactive: -25.5% |
| CN1CCc2cccc3c2[C@H]1Cc1ccc(O)c(O)c1-3 | active: 10.3 µM and active: 20.6 µM |  |
| CCOc1ccc(S(=O)(=O)NCCC(=O)NCc2cccnc2)cc1 |  | inactive: -10.6% |
| CC1(C(=O)Nc2ccc(F)cc2F)CCN1C(=O)CCC1CCCC1 (centres undefined) |  | inconclusive: -7.1% |
| O=C(Nc1ccccc1-c1nnn(CC(=O)N2CCCc3ccccc32)n1)c1ccco1 | inconclusive [cytotoxic, single point] |  |
| COc1ccc(C)cc1NC(=O)Nc1ccc(C(=O)N2CCCC2)cc1 | inconclusive [cytotoxic, partial curve] |  |
| COc1cc(/C=C2\SC(=Nc3ccc(O)cc3)NC2=O)cc(OC)c1O | inconclusive [cytotoxic, full curve, poor fit] |  |
| COc1cc(-n2nc(C)c3c2OC(N)=C(C#N)C3c2ccccc2)c(Cl)c(Br)c1O (centres undefined) | inconclusive [cytotoxic, single point] |  |
| Nn1c(Nc2ccc(Cl)cc2)nncc1=O | inconclusive [rising, single point] |  |
| Cc1nc2cc(NCc3nc4ccccc4n3Cc3ccccc3)ccc2n1C | inconclusive [cytotoxic, partial curve] |  |
| O=[N+]([O-])c1ccc(-c2nc(-c3cccs3)c(-c3cccs3)[nH]2)cc1 | inconclusive [cytotoxic, single point] |  |
| COCCNC(=O)c1ccc(N2CC3CC(C2)c2cccc(=O)n2C3)c(NC(=O)c2ccccc2Cl)c1 (centres undefined) |  | inactive: 1.98% |
| Cc1ccc(NC(=O)CN(C)C(=O)CSc2nccn2C)cc1 |  | inactive: 16% |
| COc1ccc(NC(=O)CN2C(=O)NC(CC(C)C)C2=O)cc1S(=O)(=O)N1CCOCC1 (centres undefined) |  | inactive: 8.24% |
| COc1cc(OC)c(NC(=O)c2csc(C)c2)cc1Cl |  | inactive: -20.4% |

| Compound | Potency | activity, negative = less viability |
| --- | --- | --- |
| O=[N+]([O-])CC(c1ccccc1)c1c[nH]c2ccccc12 (centres undefined) | inconclusive [cytotoxic, partial curve] |  |
| Cc1ccc(C)c(NC(=O)CN(C)C(=O)c2ccc3[nH]c4c(c3c2)CC(C)CC4)c1 (centres undefined) | inconclusive [cytotoxic, single point] |  |
| CCc1ccc2c(c1)NC(=O)C2(C)Cc1ccc(Cl)cc1 (centres undefined) | inconclusive [rising, full curve, poor fit] |  |
| O=C(NCc1cccnc1)C1CC2c3ccccc3C1c1ccccc12 (centres undefined) |  | inactive: -2.32% |
| Nc1ncnc2c1ccn2[C@H]1CN(Cc2ccc3c(c2)OCO3)C[C@@H](CO)O1 | inconclusive [rising, single point] |  |
| O=C(CSc1ccc(-c2ccc(F)cc2)nn1)NC1CCCCC1 |  | inactive: -0.46% |
| CCOC(=O)C(=NC(C)CC)NNc1cccc(C(F)(F)F)c1 (centres undefined) |  | inactive: -7.62% |
| CCc1ccc2ncc(S(=O)(=O)c3ccc(C)c(C)c3)c(N3CCCC3)c2c1 | inconclusive [cytotoxic, single point] |  |
| CCOc1ccc(OCc2ccc(C(=O)NN)o2)cc1 |  | inactive: 3.29% |
| O=C(N/N=C/c1ccc([N+](=O)[O-])o1)c1cc2ccccc2o1 | inconclusive [cytotoxic, single point] |  |
| C=CCOC(=O)C1=C(C)NC(SCC(=O)Nc2ccc(C)c(Cl)c2)=C(C#N)C1c1ccco1 (centres undefined) | active: 18.4 µM |  |
| Cc1ccccc1NCc1ccc(O)c2ncccc12 | active: 3.16 µM |  |
| CC(C)(C)C1=CC(=Nc2ccccc2N)C=C(C(C)(C)C)C1=O | inconclusive [cytotoxic, single point] |  |
| Cc1ccc(S(=O)(=O)N(C)CC(=O)N2CCN(C(=O)c3ccco3)CC2)cc1 |  | inactive: 11.5% |
| NC(=O)c1ccc(N2CCN(S(=O)(=O)c3cccs3)CC2)c([N+](=O)[O-])c1 |  | inactive: -4.68% |
| COc1cc(C(C(=O)NC2CCCCC2)N(CCN2CCOCC2)C(=O)C2COc3ccccc3O2)cc(OC)c1OC (centres undefined) | inconclusive [rising, full curve] |  |
| COc1ccc(OC)c(CN2CCN(Cc3cccc4ccccc34)CC2)c1 | inconclusive [cytotoxic, single point] |  |
| O=C(CSc1nc(-c2ccccc2)c(-c2ccccc2)o1)NC1CCS(=O)(=O)C1 (centres undefined) |  | inactive: -11.6% |
| Cc1ccc(C)c2c1[nH]c1ccccc12 |  | inactive: -24% |
| CCC(=O)N1CCN(c2ccc(NC(=O)c3ccc([N+](=O)[O-])o3)cc2)CC1 | active: 6.51 µM |  |
| Cc1ccc(S(=O)(=O)N(C(=O)c2ccncc2)c2ccc(OC(=O)c3ccncc3)c3ccccc23)cc1 | inconclusive [cytotoxic, single point] |  |
| Cc1cc(C)n(-c2ccccc2C#N)n1 |  | inactive: 9.58% |
| CC(=O)N1c2ccc(S(=O)(=O)N3CCC(C(=O)NC4CCC(C)CC4)CC3)cc2CC1C (centres undefined) |  | inactive: 1.75% |
| CCOC(=O)c1cnc2c(cnn2C)c1Cl | inconclusive [rising, partial curve, poor fit] |  |
